These results are taken from the antibiotic and cytotoxicity screens of Wong et al. (2023).

The list shows a part of the results.

The subject of one test is HSkMC. The test can be described thus: cytotoxicity call (relative viability < 0.9). The settings on record: 10 µM.
For another test, the system named is HepG2. The test can be described thus: cytotoxicity call (relative viability < 0.9). The settings on record: 10 µM.
The next test deals with S. aureus RN4220. The test can be described thus: growth inhibition call (relative growth <= 0.2). The settings on record: 50 µM.

`C[C@@H]1CN([C@@H](C)CO)C(=O)c2cccc(NC(=O)Nc3ccc(C(F)(F)F)cc3)c2O[C@H]1CN(C)S(=O)(=O)c1ccc(F)cc1`: the cytotoxicity call with HSkMC and in the test with HepG2 was “inactive” throughout. Also, the growth inhibition call with S. aureus RN4220 was “inactive”.

Take `C[C@H](CO)N1C[C@H](C)[C@H](CN(C)C(=O)Nc2ccccc2)Oc2c(NC(=O)CCCCCC(=O)Nc3ccccc3N)cccc2C1=O`: the cytotoxicity call in the test with HSkMC and in the test with HepG2 was “inactive” in each case. Further, in the test on S. aureus RN4220, the growth inhibition call was “inactive”.

As to `CC(O)C(=O)[O-].[Na+]` (configuration not stated), the cytotoxicity call with HSkMC and with HepG2 was “inactive” in each case. Moreover, the growth inhibition call in the test with S. aureus RN4220 is “inactive”.

With `C[C@H](CO)N1C[C@H](C)[C@H](CN(C)C(=O)Cc2ccccc2)Oc2ncc(C#CC3(O)CCCC3)cc2C1=O`, in the test on HSkMC, the cytotoxicity call is “active”. The cytotoxicity call in the test on HepG2 is “inactive”. Further, the growth inhibition call in the test with S. aureus RN4220 is “inactive”.

In the case of `C[C@H]1CN([C@@H](C)CO)C(=O)c2cc(NC(=O)C3CC3)ccc2O[C@@H]1CN(C)S(=O)(=O)c1cn(C)cn1`, the cytotoxicity call with HSkMC and in the test on HepG2 was “inactive” in each case. Besides, the growth inhibition call in the test on S. aureus RN4220 was “inactive”.

`C[C@H](CO)N1C[C@H](C)[C@@H](CN(C)C(=O)CCC(F)(F)F)OCCCC[C@H](C)Oc2ccc(NS(=O)(=O)c3ccc(Cl)cc3)cc2C1=O`: the cytotoxicity call in the test on HSkMC and in the test with HepG2 was “inactive” each time. In addition, the growth inhibition call in the test on S. aureus RN4220 is “inactive”.

Consider `C[C@@H]1CN([C@H](C)CO)C(=O)c2cc(C#CCN(C)C)cnc2O[C@H]1CN(C)C(=O)c1cnccn1`, for which the cytotoxicity call in the test on HSkMC (human skeletal muscle cells) and with HepG2 was “inactive” in each case. For the same compound, the growth inhibition call in the test with S. aureus RN4220 was “inactive”.

Regarding `C[C@H]1CN([C@@H](C)CO)C(=O)c2cccc(NC(=O)Nc3ccc(F)cc3)c2O[C@H]1CN(C)Cc1ccc(Oc2ccccc2)cc1`, the cytotoxicity call in the test with HSkMC and in the test with HepG2 was “inactive” each time. Also, in the test on S. aureus RN4220, the growth inhibition call is “inactive”.

For `O=C(C[C@@H]1CC[C@@H]2[C@H](COC[C@H](O)CN2S(=O)(=O)c2ccccc2)O1)NCc1ccncn1`, the cytotoxicity call with HSkMC and in the test with HepG2 was “inactive” each time. The growth inhibition call with S. aureus RN4220 was “inactive”.
